Laboratory results from a collection of fitness landscapes (doi:10.1016/j.celrep.2020.107928).
Over roughly 81,000 sequences, “one-hybrid fitness for binding NBS DNA” has its median near -0.1; the highest 2% begin near 0.36. Some of the results follow.

B1: Caulobacter ParB omega fusion; a variant is named by its letters at X, in order, B8GW30 (parent)
chain: MESVVVGEPGMSEGRRGLGRGLSALLGEVDAAPAQAPGEQLGGSREAPIEILQRNPDQPRRTFREEDLEDLSNSIREKGVLQPILVRPSPDTAGEYQIVAGERAWRAAQRAGLKTVPIMVRELDDLAVLEIGIIENVQRADLNVLEEALSYKVLMEKFERTQENIAQTIGKSXSHVANXMRLLXLPDEVQSYLVSGELTAXHARAIAAAADPVALAKQIIEGGLSVRETEALARKAPNLSAGKSKGGRPPRVKDTDTQALESDLSSVLGLDVSIDHRGSTGTLTITYATLEQLDDLCNRLTRGI

Variants of: B1
Test: one-hybrid fitness for binding NBS DNA (the Noc-binding site; scaled: cognate 1, non-cognate 0); higher = stronger binding
Settings: with NBS DNA site
How it was run: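 In E. coli USO, a HIS3 reporter with its site placed 19 bp from the promoter was used to select Caulobacter ParB variants randomised at four specificity codons. Growth lasted 48 hours at 37°C on histidine-free M9 containing 0.1 mM IPTG and 5 mM 3-AT. Fitness was taken as the log change in variant-to-wild-type read ratio from Illumina sequencing of pre- and post-selection plasmids, rescaled between the non-cognate and cognate sites.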

Variant	one-hybrid fitness for binding NBS DNA
DVHR	≤ 0.2
IRAM	≤ 0.2
LYHS	≤ 0.2
YGFF	≤ 0.2
YIMR	≤ 0.2
CSQA	≤ 0.2
HYWM	≤ 0.2
SSNW	≤ 0.2
HQGP	≤ 0.2
IDHT	≤ 0.2
LAGS	≤ 0.2
VDRK	≤ 0.2
GCQC	≤ 0.2
PMYT	≤ 0.2
GRTG	≤ 0.2
PYLV	≤ 0.2
QNNK	≤ 0.2
KAVF	≤ 0.2
TKVM	≤ 0.2
RNFM	≤ 0.2
HRWA	≤ 0.2
NTAK	≤ 0.2
PANE	≤ 0.2
RDVS	≤ 0.2
QMMG	≤ 0.2

Variant	one-hybrid fitness for binding NBS DNA
WKVG	≤ 0.2
HDQW	≤ 0.2
PKTR	≤ 0.2
AWLI	≤ 0.2
NAKT	≤ 0.2
GRLA	≤ 0.2
THLL	≤ 0.2
AQFF	≤ 0.2
SAIL	≤ 0.2
MCRW	≤ 0.2
TVNH	≤ 0.2
RMWA	≤ 0.2
QANN	≤ 0.2
WSRS	≤ 0.2
NMHK	≤ 0.2
SLHR	≤ 0.2
KAPY	≤ 0.2
FHIR	≤ 0.2
FDQL	≤ 0.2
SIMV	≤ 0.2
MRLQ	≤ 0.2
PNAM	≤ 0.2
NKAS	≤ 0.2
RYIN	≤ 0.2
KTNR	0.295

Variant	one-hybrid fitness for binding NBS DNA
QLTD	≤ 0.2
SSIQ	≤ 0.2
KQQW	≤ 0.2
MMQL	≤ 0.2
RTGA	0.261
RKEK	≤ 0.2
GKEY	≤ 0.2
LYRL	≤ 0.2
FWAY	≤ 0.2
WSAR	≤ 0.2
LSKR	≤ 0.2
KYQC	≤ 0.2
RQPC	≤ 0.2
PRWS	≤ 0.2
RFIY	≤ 0.2
HTHL	≤ 0.2
THPR	≤ 0.2
CNAD	≤ 0.2
VTCV	≤ 0.2
VQQE	≤ 0.2
EWQN	≤ 0.2
TRHP	≤ 0.2
SDHS	≤ 0.2
QYRV	0.392
KRST	0.573

Variant	one-hybrid fitness for binding NBS DNA
QFGV	≤ 0.2
NPVT	≤ 0.2
HRRI	≤ 0.2
WHWG	≤ 0.2
NNCS	≤ 0.2
QGNG	≤ 0.2
IRPE	≤ 0.2
GDEP	≤ 0.2
YCAC	≤ 0.2
DSST	≤ 0.2
NKSF	≤ 0.2
SKNE	≤ 0.2
GKCS	≤ 0.2
KIFT	≤ 0.2
EEAP	≤ 0.2
RLEV	≤ 0.2
WGMS	≤ 0.2
SAQQ	≤ 0.2
HIMM	≤ 0.2
NLRM	≤ 0.2
QAMQ	≤ 0.2
ELMW	≤ 0.2
QSSC	≤ 0.2
LCVC	≤ 0.2
MARN	≤ 0.2

Variant	one-hybrid fitness for binding NBS DNA
YLQM	≤ 0.2
QTNN	0.327
SFNV	≤ 0.2
RCFT	0.423
QALG	≤ 0.2
ISKT	≤ 0.2
MHYP	≤ 0.2
RIRC	0.236
TTVR	≤ 0.2
PQGT	≤ 0.2
CNIR	≤ 0.2
PQIY	≤ 0.2
HITR	≤ 0.2
RDLY	≤ 0.2
TQMA	≤ 0.2
MDRS	≤ 0.2
GVRK	≤ 0.2
AYMC	≤ 0.2
LDSM	≤ 0.2
MMSM	≤ 0.2
CKEG	≤ 0.2
YVDS	≤ 0.2
QNQV	≤ 0.2
EKHG	≤ 0.2
KLCG	≤ 0.2

Variant	one-hybrid fitness for binding NBS DNA
PSRA	≤ 0.2
HRAC	≤ 0.2
LVPC	≤ 0.2
RPMA	≤ 0.2
SHHC	≤ 0.2
VLPG	≤ 0.2
TRNG	≤ 0.2
QCEA	≤ 0.2
KPLK	≤ 0.2
TPPM	≤ 0.2
PKAP	≤ 0.2
DQAD	≤ 0.2
KTND	≤ 0.2
YPCC	≤ 0.2
NQTI	≤ 0.2
GIWS	≤ 0.2
LPVD	≤ 0.2
PLNT	≤ 0.2
HWIG	≤ 0.2
AYIN	≤ 0.2
MSLW	≤ 0.2
SCRN	≤ 0.2
DSMD	≤ 0.2
TNDR	≤ 0.2
RLEH	≤ 0.2

Variant	one-hybrid fitness for binding NBS DNA
QMMD	≤ 0.2
RLSN	≤ 0.2
HHST	≤ 0.2
DING	≤ 0.2
ASPI	≤ 0.2
GDPR	≤ 0.2
SIRG	≤ 0.2
AKGR	≤ 0.2
QLEK	≤ 0.2
TIYT	≤ 0.2
VDIS	≤ 0.2
YYQC	≤ 0.2
PPHP	≤ 0.2
FPPI	≤ 0.2
HSKY	≤ 0.2
NARD	≤ 0.2
FQHG	≤ 0.2
NQKY	≤ 0.2
QIKY	0.364
RRPR	0.605
PVCT	≤ 0.2
RFYE	≤ 0.2
VQFV	≤ 0.2
TKHC	≤ 0.2
TCAP	≤ 0.2

Variant	one-hybrid fitness for binding NBS DNA
YIPG	≤ 0.2
DKMR	≤ 0.2
LGQE	≤ 0.2
GEIF	≤ 0.2
RKSV	≤ 0.2
YLSL	≤ 0.2
LFLS	≤ 0.2
FGGT	≤ 0.2
RSMM	≤ 0.2
PPMM	≤ 0.2
NGDS	≤ 0.2
FFSL	≤ 0.2
GAHR	≤ 0.2
VKYL	≤ 0.2
YLGC	≤ 0.2
YRFG	≤ 0.2
NSDC	≤ 0.2
PLGC	≤ 0.2
RPVE	≤ 0.2
KPAA	≤ 0.2
